This passage reports fractional viability results from the supplement of paper PMC5919970.

The test system of the test is TYKNU. The test is described as follows: fractional viability relative to vehicle; TYKNU is a high-grade serous ovarian cancer line; higher = less growth inhibition. The note with it: 72 h. Summed up: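 TYKNU control cells or lentiCRISPRv2 knockout derivatives were plated at 500 cells per well in duplicate into drug-stamped 384-well plates holding a ~2100-compound library at 2 or 10 μM. Culture was in RPMI 1640 with 10% FBS at 37 °C in 5% CO2, with 72 h of drug treatment. Viability was measured by Cell Titer Glo luminescence, and the averaged duplicate treatment wells were normalised to duplicate control wells at the same plate position.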

[1] abbreviates: 2uM, genotype: DNM1L knockout (sgDNM1L #1).
[2] abbreviates: 2uM, genotype: sgCTRLA1 (non-targeting control).
Setting [3] is: 10uM, genotype: DNM1L knockout (sgDNM1L #1).
The mark [4] stands for this setting: 10uM, genotype: sgCTRLA1 (non-targeting control).

Structures can show the parent of a compound that is named as a salt. Over roughly 2,000 compounds, “fractional viability relative to vehicle” has its median near 0.91; the lowest 2% begin near 0.045. This is one part of the list.

For `O=S(=O)(O)CCSSCCS(=O)(=O)O` [Dimesna], the fractional viability stood at 0.95 under setting [1], 1.09 under setting [2], 0.861 under setting [3] and 1.11 under setting [4].
Taken in the same sequence, the figures for `Clc1ccccc1C(c1ccccc1)(c1ccccc1)n1ccnc1` [Clotrimazole] were 0.943, 0.974, 0.654 and 0.808.
For `NC(=O)NO` [Hydroxyurea] the same measures were 0.92, 1.14, 0.948 and 1.16.
On to `Clc1ccc(COC(Cn2ccnc2)c2ccc(Cl)cc2Cl)cc1` (configuration not stated) [Econazole nitrate], for which the fractional viability was 0.9 under setting [1], 1.02 under setting [2], 0.489 under setting [3] and 0.918 under setting [4].
For `Cc1cc(CS(=O)(=O)c2ccccc2)cc(OCc2ccc(CN3CCC[C@@H]3CO)cc2)c1` the same measures were 0.945, 1.07, 0.72 and 0.878.
For `CCc1cc(/C(C)=N/OCc2ccc(C3CCCCC3)c(C(F)(F)F)c2)ccc1CN1CC(C(=O)O)C1` [BAF312 (Siponimod)] the same measures were 0.913, 1.03, 0.593 and 0.808.
Turning to `COc1cc2c(cc1OC)CN(CCc1ccc(NC(=O)c3cccc4c(=O)c5cccc(OC)c5[nH]c34)cc1)CC2`, the fractional viability was 0.779 under setting [1], 0.958 under setting [2], 0.877 under setting [3] and 0.835 under setting [4].
Taken in the same sequence, the figures for `CCN(CCCc1ccccc1)CCCc1ccccc1` [Alverine Citrate] were 1.18, 0.98, 0.896 and 0.912.
Taken in the same sequence, the figures for `Cn1cnc(N)c2ncnc1-2` [3-Methyladenine] were 1.08, 1.09, 0.853 and 1.14.
Turning to `Cc1c(O)cccc1C(=O)N[C@@H](CSc1ccccc1)[C@H](O)CN1C[C@H]2CCCC[C@H]2C[C@H]1C(=O)NC(C)(C)C` [Nelfinavir Mesylate], the fractional viability amounted to 0.778 under setting [1], 1.11 under setting [2], 0.283 under setting [3] and 0.741 under setting [4].
`CN(C)CCC(c1ccccc1)c1ccccn1` (configuration not stated) [Pheniramine Maleate]: the fractional viability worked out at 1.06 under setting [1], 1.17 under setting [2], 0.864 under setting [3] and 1.06 under setting [4].
Consider `CC(C)NCCCn1c(Sc2cc3c(cc2I)OCO3)nc2c(N)ncnc21`, for which the fractional viability was 0.207 under setting [1], 0.177 under setting [2], 0.233 under setting [3] and 0.123 under setting [4].
Taken in the same sequence, the figures for `Nc1ccn([C@@H]2O[C@H](CO)[C@@H](O)[C@H]2O)c(=O)n1` [Cytidine] were 0.957, 1.05, 0.95 and 1.02.
On to `CN(C)CCN1C(=O)c2cccc3cc(N)cc(c23)C1=O` [Amonafide], for which the fractional viability runs as follows: under setting [1], 0.766; under setting [2], 0.838; under setting [3], 0.32; under setting [4], 0.26.
For `CCOc1ccc(Cc2cc([C@@H]3O[C@H](CO)[C@@H](O)[C@H](O)[C@H]3O)ccc2Cl)cc1` [Dapagliflozin] the same measures were 0.901, 1.01, 0.842 and 1.01.
Take `O[C@@H]1CO[C@H]2[C@@H]1OC[C@@H]2O` [Isosorbide]: the fractional viability reads like this: under setting [1], 0.693; under setting [2], 1.13; under setting [3], 0.625; under setting [4], 1.05.
For `O=c1cc(CN2CCOCC2)occ1OCCCCCSc1ccnc2cc(C(F)(F)F)ccc12`, the fractional viability reads like this: under setting [1], 0.804; under setting [2], 0.892; under setting [3], 0.682; under setting [4], 0.468.
For `Cc1cc(C)cc(NC(=O)Cc2ccc(OC(C)(C)C(=O)O)cc2)c1` [Efaproxiral Sodium] the same measures were 0.85, 1.1, 0.696 and 1.09.
